# Laboratory results published in PMC4336329 (PLoS ONE, 2015).
# Screen size: about 310,000 compounds; about 2,200 (0.71%) showed an effect of 50% or more. The effect is printed as a negative number. Some of the results follow.
# Target: human ether-à-go-go-related gene (hERG) potassium channel (human, UniProt Q12809)
# Test: primary screen, population patch clamp on CHO cells stably expressing hERG
# Chain of human ether-à-go-go-related gene (hERG) potassium channel (Q12809 whole entry, looked up): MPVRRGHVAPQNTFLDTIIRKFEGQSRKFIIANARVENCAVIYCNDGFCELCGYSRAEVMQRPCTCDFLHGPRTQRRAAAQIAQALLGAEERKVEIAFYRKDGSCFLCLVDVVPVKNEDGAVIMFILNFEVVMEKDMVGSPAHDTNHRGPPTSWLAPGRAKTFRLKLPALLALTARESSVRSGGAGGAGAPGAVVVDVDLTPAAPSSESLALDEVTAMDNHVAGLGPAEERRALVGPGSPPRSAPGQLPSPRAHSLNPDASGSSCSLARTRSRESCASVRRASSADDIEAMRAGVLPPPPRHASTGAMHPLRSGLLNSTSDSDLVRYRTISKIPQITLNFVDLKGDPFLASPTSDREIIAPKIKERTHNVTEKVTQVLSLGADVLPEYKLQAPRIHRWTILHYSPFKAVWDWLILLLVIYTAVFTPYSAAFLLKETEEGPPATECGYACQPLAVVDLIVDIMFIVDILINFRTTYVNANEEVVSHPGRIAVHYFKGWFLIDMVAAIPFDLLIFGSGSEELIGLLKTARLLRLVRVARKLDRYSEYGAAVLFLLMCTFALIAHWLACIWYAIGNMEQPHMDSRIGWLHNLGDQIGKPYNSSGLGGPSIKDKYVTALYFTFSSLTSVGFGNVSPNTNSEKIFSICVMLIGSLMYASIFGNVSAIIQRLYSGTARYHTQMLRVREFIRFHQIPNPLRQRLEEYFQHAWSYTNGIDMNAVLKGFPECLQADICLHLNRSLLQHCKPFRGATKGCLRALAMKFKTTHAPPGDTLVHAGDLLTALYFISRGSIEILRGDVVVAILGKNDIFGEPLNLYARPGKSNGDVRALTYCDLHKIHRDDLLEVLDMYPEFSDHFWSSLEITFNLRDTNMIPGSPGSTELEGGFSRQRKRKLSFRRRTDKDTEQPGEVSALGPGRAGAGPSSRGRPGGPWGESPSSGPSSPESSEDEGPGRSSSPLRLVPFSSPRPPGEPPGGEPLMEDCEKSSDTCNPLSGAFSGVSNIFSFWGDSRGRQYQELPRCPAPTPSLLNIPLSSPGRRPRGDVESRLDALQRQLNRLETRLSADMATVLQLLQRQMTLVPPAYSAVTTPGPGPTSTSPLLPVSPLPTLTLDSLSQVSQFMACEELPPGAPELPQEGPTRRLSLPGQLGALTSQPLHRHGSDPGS
row,Structure (SMILES),"hERG current change (%, negative = inhibition) at 1uM"
1,Cc1cccc(N2CSC3=C(C#N)C(c4ccc(C)o4)CC(=O)N3C2)c1 (centres unmarked),8.62%
2,Cc1ccc(N(CC(=O)O)S(C)(=O)=O)cc1Cl,11.1%
3,CC(C)(C)NS(=O)(=O)c1ccc(OCC(=O)NCCC2=CCCCC2)cc1,-0.772%
4,COC(=O)c1ccccc1NC(=S)N1CCN(c2ccccn2)CC1,9.29%
5,CCC(C)/C(C)=N/Nc1ccc(S(N)(=O)=O)cc1[N+](=O)[O-] (centres unmarked),3.58%
6,O=C(O)CC(NC(=O)C(F)(F)F)c1ccc2c(c1)OCO2 (centres unmarked),13.9%
7,Cc1ccc(NC(=O)c2ccc(F)cc2)cc1S(=O)(=O)N1CCCCCC1,4.07%
8,CCCCn1c(CNC(=O)C23CC4CC(CC(C4)C2)C3)nnc1SC(C)CC (centres unmarked),4.2%
9,FC(F)(F)c1cccc(-c2cc3ccccc3nc2N2CCCC2)c1,10.4%
10,O=C(CSc1nc2ncccc2[nH]1)NC1CCCCC1,15%
11,COc1ccccc1CC(=O)NCCN1CCCCC1,10.7%
12,O=C(NCCCN1CCOCC1)c1ccc(Sc2ccc(F)cc2)c([N+](=O)[O-])c1,-8.71%
13,COc1ccc(Cl)cc1C(=O)NNC(=S)NC(=O)c1cc(-c2ccc(Cl)cc2)nc2ccccc12,5.94%
14,NC(=O)c1ccc(Nc2nnc(-c3ccc(O)cc3)c3ccccc23)cc1,11.5%
15,Cc1cc(C)cc(OCC(=O)Nc2ccccc2C(=O)N2CCOCC2)c1,10.7%
16,O=C(CCc1ccncc1)NC1CCCc2c1cnn2-c1cc(F)cc(F)c1 (centres unmarked),-28.5%
17,CCOc1ccc(CCNC(=O)CN2C(=O)NC3(CCCCCC3)C2=O)cc1OCC,10.8%
18,CCOCCCNC(=S)N1CCN(Cc2ccc3c(c2)OCO3)CC1.O=C(O)C(=O)O,8.76%
19,O=C(Nc1cc(-c2nc3ccccc3s2)ccc1Cl)c1ccc2c(c1)OCO2,10.7%
20,CNc1cc(NS(=O)(=O)c2ccc(N)cc2)nc(NC)n1.Cl,-17.3%
21,COC(=O)C1=C(c2c(C)noc2C)C[C@@H]2CC[C@H]1N2C(=O)N1CCOCC1,8.64%
22,COc1ccc(C(CCN(Cc2ccc(OC)c(OC)c2)C(C)=O)c2ccccc2)cc1 (centres unmarked),2.9%

row,Structure (SMILES),"hERG current change (%, negative = inhibition) at 1uM"
1,COCC(C)NC(=O)COc1ccc(Cl)cc1Cl (centres unmarked),14%
2,CCc1ccc(N2CC(C(=O)Nc3ccc(S(=O)(=O)Nc4nccs4)cc3)CC2=O)cc1 (centres unmarked),5.98%
3,COc1cccc(NC(=O)c2cc(CN3C(=O)c4ccccc4C3=O)ccc2OC)c1,5.82%
4,Cc1cccc(NC(=O)N(Cc2cc3cc(C)ccc3[nH]c2=O)CC2COCCO2)c1 (centres unmarked),4.81%
5,CCN1C(=O)C(CC(=O)Nc2ccc(Cl)cc2)N(NC(=O)c2ccncc2)C1=S (centres unmarked),12.2%
6,O=C(C1CCCCC1)N1CCN(c2ccccc2F)CC1,9.54%
7,CCOC(=O)N1CCN(c2c(-c3ccc(C)c(C)c3)c(=O)c2=O)CC1,14.8%
8,O=C(c1cc(Br)ccc1Cl)N1CCC2(CC1)OCCO2,-4.85%
9,O=C(CN1C(=O)c2ccccc2C1=O)OCc1nc2ccsc2c(=O)[nH]1,18%
10,CCn1cc(CN2CCCC(CNC(=O)COc3ccccc3OC)C2)c(C)n1 (centres unmarked),16.3%
11,CC1Cc2ccccc2N1Cc1cccc([N+](=O)[O-])c1 (centres unmarked),9.32%
12,CC(=O)C1=C(O)C(=O)N(CC#N)C1c1cccs1 (centres unmarked),15.9%
13,CCc1ccc(-c2c(C)sc(NC(=O)C3CCC3)c2C#N)cc1,11.1%
14,O=C(O)C1CCCCC1C(=O)Nc1ccc(-c2ccccc2)cc1 (centres unmarked),13.6%
15,COc1cc2c(cc1OC)C(C(=O)NCC1COc3ccccc3O1)C(c1cccnc1)N(C)C2=O (centres unmarked),0.42%
16,Cc1cc(C)cc(OC(=O)CCN2C(=O)C3C4C=CC(C5CC45)C3C2=O)c1 (centres unmarked),3.58%
17,Cn1c(SCC(=O)N2CCCC2=O)nnc1-c1ccccc1F,10.3%
18,FC(F)C(F)(F)C1=CC(c2ccccc2)=NCCN1,-5.03%
19,Cc1nc2scc(-c3cccs3)c2c(=O)o1,3.08%
20,Cc1cccnc1NC(=O)/C=C/c1ccc2c(c1)OCO2,1.18%
21,COc1ccc(C2=NN(C(=O)CCC(=O)O)C(c3cccs3)C2)cc1 (centres unmarked),4.11%
22,CCCCC(=O)N1CCN(c2ccc(OC)cc2[N+](=O)[O-])CC1,-54.5%
